# Source: article PMC4336329 (PLoS ONE, 2015)
# Among all 310,000 compounds or so, about 14,000 (4.5%) showed an effect of 50% or more. Effects have a minus sign here. The list shows a part of the results.
# Target: human ether-à-go-go-related gene (hERG) potassium channel (human, UniProt Q12809)
# Assay: primary screen, population patch clamp on CHO cells stably expressing hERG
# 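Also: peak tail current of the secondary pulse compared with the same well before compound.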
# Chain of human ether-à-go-go-related gene (hERG) potassium channel (Q12809 whole entry, looked up): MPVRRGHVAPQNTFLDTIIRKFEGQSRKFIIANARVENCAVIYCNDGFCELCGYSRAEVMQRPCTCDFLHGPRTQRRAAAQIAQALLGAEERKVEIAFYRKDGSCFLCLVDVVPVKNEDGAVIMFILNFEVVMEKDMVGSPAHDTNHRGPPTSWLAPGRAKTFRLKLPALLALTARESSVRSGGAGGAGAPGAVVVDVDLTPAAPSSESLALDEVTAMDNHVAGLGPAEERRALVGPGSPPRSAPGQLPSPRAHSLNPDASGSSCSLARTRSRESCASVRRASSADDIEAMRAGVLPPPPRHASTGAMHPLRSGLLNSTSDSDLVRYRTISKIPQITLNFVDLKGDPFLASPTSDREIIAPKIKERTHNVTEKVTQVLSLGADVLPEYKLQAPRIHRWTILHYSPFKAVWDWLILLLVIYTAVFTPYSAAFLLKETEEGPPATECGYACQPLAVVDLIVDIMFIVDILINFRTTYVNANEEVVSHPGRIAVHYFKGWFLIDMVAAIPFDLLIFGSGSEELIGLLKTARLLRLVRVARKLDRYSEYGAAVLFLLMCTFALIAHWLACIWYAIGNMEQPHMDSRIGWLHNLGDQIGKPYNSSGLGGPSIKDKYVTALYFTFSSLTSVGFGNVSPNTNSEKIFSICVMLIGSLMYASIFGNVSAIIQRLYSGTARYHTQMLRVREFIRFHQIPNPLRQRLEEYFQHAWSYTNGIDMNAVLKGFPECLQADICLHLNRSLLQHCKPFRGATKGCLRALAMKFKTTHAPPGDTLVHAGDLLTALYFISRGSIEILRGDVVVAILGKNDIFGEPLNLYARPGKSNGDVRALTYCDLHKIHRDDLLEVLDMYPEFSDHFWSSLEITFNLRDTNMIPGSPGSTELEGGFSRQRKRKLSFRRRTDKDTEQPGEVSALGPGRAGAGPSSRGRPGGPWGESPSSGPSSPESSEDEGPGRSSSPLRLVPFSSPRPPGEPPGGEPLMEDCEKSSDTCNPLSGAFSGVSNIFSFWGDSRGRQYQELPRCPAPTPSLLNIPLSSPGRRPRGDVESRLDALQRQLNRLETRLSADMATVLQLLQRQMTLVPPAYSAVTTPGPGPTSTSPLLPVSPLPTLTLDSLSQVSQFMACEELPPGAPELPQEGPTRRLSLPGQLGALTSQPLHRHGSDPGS
row,Compound,"hERG current change (%, negative = inhibition) at 10uM"
1,COc1ccc(CN2CCNC(=O)C2CC(=O)NCc2csc(C(C)C)n2)c(OC)c1 (stereo not drawn),-2.45%
2,COC(=O)c1cn(NC(=O)c2ccc(F)cc2)c(=O)c2ccccc12,16.6%
3,CC(C)C(CCNC1CCN(C)CC1)c1ccc(Cl)cc1 (stereo not drawn),11.3%
4,O=C(Nc1nc(-c2ccc(-c3ccccc3)cc2)cs1)C1=COCCO1,-2.03%
5,Cc1ccc(-c2nc(Nc3cccc(O)c3)c3ccccc3n2)cc1,11.9%
6,COc1ccc(OC)c(Nc2cc(C(=O)NCCCN3CCOCC3)c3ccccc3n2)c1,-8.94%
7,Cc1[nH]c2ccccc2c1C(=O)COC(=O)C1CCC1,-32%
8,O=C(OCC(=O)N1CCCCCC1)c1ccc(Cl)c(S(=O)(=O)N2CCCC2)c1,-11.2%
9,COc1ccc(CN(CCN)C2CC(C)N(C)CC2C)cc1.Cl (stereo not drawn),7.07%
10,CC(=O)Nc1oc(-c2cccc3ccccc23)nc1C#N,-6.52%
11,Cc1ccc2cccc(S(=O)(=O)N3CCN(c4ccccc4F)CC3)c2n1,-7.22%
12,O=C(NC1CCCCC1)NC1CCN(C(=S)NCc2ccco2)CC1,-12.8%
13,Cc1cc(C)c(NC(=S)N2CCCC2C(=O)O)c(C)c1 (stereo not drawn),1.82%
14,Cn1c(SCC(=O)O)nc2sc3c(c2c1=O)CCC3,30.3%
15,COc1cc(/C=C/C(=O)c2ccc(C)c([N+](=O)[O-])c2)cc(OC)c1O,-0.34%
16,CCn1nnnc1SCC(=O)Nc1cccc(C)n1,2.14%
17,O=C(/C=C/c1ccc(Cl)cc1)NCCc1ccccc1,-12%
18,O=C(COC(=O)C1CC(=O)N(Cc2ccccc2)C1)Nc1ccc(Cl)cc1F (stereo not drawn),48%
19,Cc1ccc(C2(O)CN(c3ccccc3C)C3=[N+]2CCS3)cc1.[Br-] (stereo not drawn),-28.1%
20,COCCn1c(SCC(=O)Nc2ccc(S(=O)(=O)N3CCOCC3)cc2)nc2ccccc21,-58.8%
21,O=C(NCc1cccc(OC(F)(F)F)c1)C1CCC(=O)N(Cc2cccc(F)c2)C1 (stereo not drawn),-50.1%
22,CNc1ccc2nc3ccccc3[n+](C)c2c1.[O-][Cl+3]([O-])([O-])[O-],2.56%

row,Compound,"hERG current change (%, negative = inhibition) at 10uM"
1,CO/N=C(/C)CCS(=O)(=O)c1ccccc1,18.5%
2,Cc1ccc(-c2nn(CCC(=O)NC(C)C)c(=O)c3ccccc23)cc1,9.17%
3,Cc1ccc(C)c(NC(=O)C(C)N2C(=O)c3ccccc3C2=O)c1 (stereo not drawn),9.35%
4,CCOP(=O)(c1ccc(N(C)C)cc1)C(O)c1ccccc1F (stereo not drawn),-14.2%
5,O=C(NNS(=O)(=O)c1ccccc1)c1csc(-c2cccnc2)n1,3.64%
6,COc1ccc(C(C)NC(=O)c2ccccc2Cl)cc1OC (stereo not drawn),0.22%
7,Cc1cc(O)c(C(C)C)cc1NC(=O)Cn1nc(C)c2ccccc2c1=O,-26.3%
8,CCOc1cc(/C=C2\NC(=S)N(C)C2=O)ccc1OCc1ccc(C(=O)O)cc1,14.6%
9,CC(C)C[C@H](NC(=O)c1nc[nH]c1C(=O)N1CCN(c2ccccc2)CC1)C(=O)OCc1ccccc1,-10.2%
10,COc1cc(C(=S)N2CCOCC2)cc(OC)c1OC(=O)c1ccccc1[N+](=O)[O-],12.4%
11,Cc1cc(C)n(CCCN2C(=O)c3cccc4cccc(c34)C2=O)n1,6.71%
12,O=C1C2C(C(=O)N1/N=C/c1cccc([N+](=O)[O-])c1)C1C=CC2C12CC2 (stereo not drawn),-28.3%
13,Cc1onc(-c2ccccc2)c1C(=O)NC(C)C1CCCO1 (stereo not drawn),10.5%
14,O=C(c1ccco1)N1N=C(C2CCCCC2)CC1(O)C(F)(F)F (stereo not drawn),8.06%
15,O=C(Nc1ccc2c(c1)OCCO2)C1CCN(S(=O)(=O)c2ccccc2)CC1,13%
16,CCCc1cc(=O)oc2c(C)c(OCC(=O)Nc3ccc(CN4CCOCC4)cc3)ccc12,-2.71%
17,O=C(NC1CCCCC1)c1ccc(CNc2c(N3CCOCC3)c(=O)c2=O)cc1,4.56%
18,Fc1cccc(C[n+]2csc3ccccc32)c1.[Br-],7.02%
19,CCc1nnc(NC(=O)CCN2C(=O)/C(=C/c3cc(OC)c(OC)c(OC)c3)SC2=S)s1,8.4%
20,COc1cccc(CNC(=O)c2cc3c(cc2Cl)N2CCCCCC2=NS3(=O)=O)c1,-42.9%
21,CCCC[C@@H](CNC)NC[C@H](NCCCCC1CCCCC1)C(C)C,-35.2%
22,N#Cc1c(-c2ccc(Br)cc2)cc(-c2cccnc2)nc1N,18.6%

row,Compound,"hERG current change (%, negative = inhibition) at 10uM"
1,COCCNC(=S)Nc1ccc2nc(N3CCCC3)cc(C)c2c1,-71.6%
2,CC(C)NS(=O)(=O)c1ccc(OCC(=O)NCCC2=CCCCC2)cc1,0.115%
3,Cc1ccc(NC(=O)COC(=O)C2COc3ccccc3O2)cc1 (stereo not drawn),8.65%
4,COC(=O)c1c(NC(=O)C2CC=CCC2C(=O)O)sc2c1CCCCC2 (stereo not drawn),9.24%
5,COc1ccc(S(=O)(=O)Nc2ccccc2C(=O)N2CCCCC2)cc1C,-9.44%
6,O=C(CSc1nnc(COc2ccccc2)o1)N1CCOCC1,5.84%
7,O=C(C1CCN(S(=O)(=O)c2cccc3cccnc23)CC1)N1CCCCC1,9.9%
8,Cc1ccc(-n2c(COc3ccccc3)n[nH]c2=S)cc1,20.5%
9,O=C(O)CCC(=O)N1N=C(c2c(-c3ccccc3)c3cc(Cl)ccc3[nH]c2=O)CC1c1cccs1 (stereo not drawn),10.5%
10,CCc1c(C)nc(SCC(=O)N2CCN(c3ccccc3OC)CC2)[nH]c1=O,13.3%
11,CCCn1c(N)c(N(C)C)c(=O)n(CC(=O)Nc2ccc(OC(F)(F)F)cc2)c1=O,-23.4%
12,O=C(CSc1nnc(-c2ccco2)n1Cc1ccccc1)NC(=O)NCc1ccco1,-74.7%
13,CCN(CC)C(=O)CSc1ncnc2sccc12,0.201%
14,NC(=O)CNC(=O)C1CCCc2c1[nH]c1ccc(Cl)cc21 (stereo not drawn),8.8%
15,COc1ccc(S(=O)(=O)N2CCCCC2)cc1NC(=O)C1CSC2(C)CCC(=O)N12 (stereo not drawn),-20.1%
16,COc1ccc(N2CCN(C(C)C(=O)N3CCc4ccccc43)CC2)cc1 (stereo not drawn),-17.7%
17,O=C(Oc1ccc(OC(=O)c2ccco2)c(S(=O)(=O)c2ccc(Br)cc2)c1)c1ccco1,2.61%
18,CCOc1ccc(S(=O)(=O)Nc2cc(S(=O)(=O)N3CCOCC3)ccc2OC)cc1,-3.5%
19,O=[P+](Cc1ccccc1)Cc1ccccc1,-0.465%
20,COC(=O)C1C(c2ccc(OC)cc2)Nc2nnc(C(F)(F)F)n2C1(C)O (stereo not drawn),10.3%
21,CCN(CC)c1ccc(CNC23CN4CN(CN(C4)C2)C3)cc1,12.5%
22,O=C(NC(Nc1cc(C(F)(F)F)ccc1Cl)C(=O)c1ccccc1)c1ccccc1 (stereo not drawn),13%

row,Compound,"hERG current change (%, negative = inhibition) at 10uM"
1,COC(=O)c1ccnc(SCC(=O)c2ccccc2)c1,3.97%
2,CCN(Cc1ccccc1)C(c1cc2cc(C)ccc2[nH]c1=O)c1nnnn1CCOC (stereo not drawn),-6.03%
3,COc1ccc2nc(NC(=O)Nc3ccccc3OC)sc2c1,24.3%
4,Cc1cccc(C)c1-n1c(C)nn(CC2CC2)c1=O,7.87%
5,CCc1nnc(NC(=O)CCCSc2nc3ccccc3[nH]2)s1,-1.78%
6,CC(=O)Nc1ccn(-c2ccccc2)n1,8.89%
7,COc1cccc(OCC(O)CN2CCC(C)CC2)c1.Cl (stereo not drawn),-12.3%
8,O=C(Nc1ccccn1)C1CCCN1S(=O)(=O)c1ccc(Cl)cc1 (stereo not drawn),-21.4%
9,CN(C)C(CNC(=O)CCc1c[nH]c2ccccc12)c1ccccc1 (stereo not drawn),-5.7%
10,O=C(COc1ccccc1)N/N=C/c1ccc2c(c1)OCO2,29.1%
11,Clc1ccc(CNc2ccc(N3CCN(Cc4ccccc4)CC3)cc2)cc1,2.19%
12,CN=C1S/C(=C\c2ccc(N3CCOCC3)c(F)c2)C(=O)N1C,21.3%
13,Cc1nnsc1-c1nnc(SCC(=O)c2ccc(C#N)cc2)n1C1CC1,-28.9%
14,CCCCOc1ccccc1P(=O)(O)CP(=O)(c1ccccc1)c1ccccc1,-3.64%
15,CN(C)c1ccc(NC(=O)c2cnsn2)cc1,24.8%
16,O=C(CCc1nc2ccccc2c(=O)[nH]1)N1CCN(S(=O)(=O)c2cccc([N+](=O)[O-])c2)CC1,5.1%
17,Cc1n[nH]c(C)c1Sc1ccccc1N=Cc1cc([N+](=O)[O-])ccc1O,-23.8%
18,CCC(=O)O[C@]1(C(=O)SCF)[C@H](C)C[C@H]2[C@@H]3C[C@H](F)C4=CC(=O)C=C[C@]4(C)[C@@]3(F)[C@@H](O)C[C@@]21C,0.475%
19,CC(C)SC1=NC(C)(C)C=C(/C=C/c2ccc(Cl)cc2Cl)N1,12.6%
20,COc1cc(C(=O)Oc2cccc(/C=N/NC(=O)c3cccnc3)c2)cc(OC)c1OC,-1.17%
21,COc1ccc(C(=O)NCCc2c[nH]c3ccccc23)cc1S(=O)(=O)N1CCCCC1C (stereo not drawn),-12%
